The results in this text go back to PubChem BioAssay AID1347073 (National Center for Advancing Translational Sciences (NCATS), 2019).

The campaign covered roughly 45,000 compounds. About 200 (0.44%) were called active. Roughly 7% stayed inconclusive and do not appear here. Calls come from the whole dose curve; as a rule, active = well fitted activation curve with a large enough effect; inconclusive = small, poorly fitted or top-dose-only effect; inactive = no such curve, though single readings can be large or run the other way. Some of the results follow.

A short description of this experiment: qHTS of TDP-43 Inhibitors: NCGC Sytravon Library Screen. Note: 0% is about no effect; nearly all actives have a fitted effect of over 55% in size. The note with it: yeast TDP-43 toxicity rescue, BacTiter-Glo growth, 24 h; series mostly up to 46.1 µM; growth rescue (activation): at the top concentration. A digest of the protocol:
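TDP-43-expressing yeast, pregrown in raffinose, seeded at OD600 0.02 in galactose medium with compound for 24 hr at 30 deg C. Growth read by BacTiter-Glo luminescence, so rescue of toxicity appears as activation.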
A general note: Quantitative high-throughput screening tests each substance at several concentrations.
On to `COCCNC(=O)C(OC(=O)C1=Cc2ccccc2OC1)C(C)C` (stereo not drawn), for which the “growth rescue (activation)” value was inactive: -2.46%.
The same measure for `CC(C)CC(NC(N)=O)C(=O)Nc1ccc(Oc2ccccc2)cc1` (stereo not drawn): inactive: 5.2%.
Regarding `Cc1cc(NC(=O)CSc2nnc(-c3ccccc3F)n2N)no1`, the “growth rescue (activation)” value was inactive: 30.9%.
With `OC[C@@H]1CN(Cc2cccc(C(F)(F)F)c2)C[C@H](n2cnc3c(NCc4ccc(F)cc4)ncnc32)O1`, the “growth rescue (activation)” value is inactive: 12.4%.
Under `Cc1ccc(/C=C2\SC(=S)N(CCC(=O)NNS(=O)(=O)c3ccc(C)cc3)C2=O)cc1` stands inactive: 12.5%; under `CCOC(=O)/C=C/C(=O)Nc1cccc([N+](=O)[O-])c1`, inactive: -93.5%; under `Cc1ccc(C(=O)NNc2ncnc3ccccc23)cc1`, inactive: -18.8%.
As to `O=C(N/N=C/c1ccc(O)c(O)c1O)/C(=C/c1ccc([N+](=O)[O-])cc1)NC(=O)c1ccccc1`, the “growth rescue (activation)” value is inactive: -75.5%.
In the case of `CCN(CC)S(=O)(=O)c1cccc(C(=O)N2CC(O)CC2C(=O)O)c1` (stereo not drawn), the “growth rescue (activation)” value is inactive: -9.39%.
The same measure for `O=S(=O)(CCc1ccncc1)c1ccc(Cl)cc1`: inactive: 4.62%; for `CCn1nc(C)c(CN2CCN(Cc3cccc(OC)c3)C(CCO)C2)c1C` (stereo not drawn): inactive: 4.65%; for `CCN(CC(=O)Nc1sc2c(c1C#N)CCCC2)CC(=O)NC1CCS(=O)(=O)C1` (stereo not drawn): inactive: 0.652%.
Regarding `CC(C)(C)OC(=O)N1CCC[C@H]1c1nnc(SCC(=O)Nc2cccc(Cl)c2)o1`, the “growth rescue (activation)” value was inactive: 19.1%.
Under `Cc1cccc(C(=O)NCCNC(=O)c2cnccn2)c1` stands inactive: 14%; under `O=C(Cn1c(SCC(=O)NC2CCCC2)nnc1-c1ccncc1)Nc1ccc2c(c1)OCO2`, inactive: 29.3%; under `Cn1c(-c2ccccc2)c(/C=N/NC(=O)c2cccnc2)c2ccccc21`, inactive: 9.65%.
As to `Cc1ccc2[nH]cc(S(=O)(=O)c3ccc(C)c(C)c3)c(=O)c2c1`, the “growth rescue (activation)” value is inactive: 12.6%.
With `O=C(Cc1ccc(F)cc1)NC1CCSC1=O` (stereo not drawn), the “growth rescue (activation)” value was inactive: 2.89%.
The same measure for `CC(=O)c1c(C)[nH]c(C(=O)COc2ccc(C#N)cc2)c1C`: inactive: 17.2%.
For the molecule `CCc1cc2c(C)ccc(C)c2nc1SCC(=O)Nc1c[nH]c(=O)[nH]c1=O`, the “growth rescue (activation)” value is inactive: 17.1%.
Under `O=C(OCN1C(=O)c2ccccc2C1=O)c1ccc(Cl)nc1` stands inactive: 18.2%; under `CC(C)N1CCN(Cc2cccc(-c3ccco3)c2)CC1CCO` (stereo not drawn), inactive: 11.3%.
Under `CN1C(=O)C(CC(=O)Nc2ccc(F)cc2)N(Cc2cccs2)C1=S` (stereo not drawn) stands inactive: -0.768%.
As to `O=C(CCNC(=O)c1ccco1)Nc1ccc(SC(F)F)cc1`, the “growth rescue (activation)” value was inactive: 2.18%.
As to `Cc1cc(C)c[n+](-c2nc3ccccc3nc2[N-]S(=O)(=O)c2cccs2)c1`, the “growth rescue (activation)” value was inactive: 6.41%.
Consider `Nc1cc(C(=O)O)ccc1Sc1ccccc1C(=O)O`, for which the “growth rescue (activation)” value was inactive: 3.6%.
For the molecule `CC1(c2ccc3ccccc3c2)NC(=O)N(CC(=O)O)C1=O` (stereo not drawn), the “growth rescue (activation)” value was inactive: 12.9%.
Turning to `O=S1(=O)N=C(N(Cc2cccs2)c2ccc(O)cc2)c2ccccc21`, the “growth rescue (activation)” value is inactive: -11.7%.
The same measure for `COc1cc(C)ccc1OCCOCCOc1ccccc1[N+](=O)[O-]`: inactive: 35.8%; for `NS(=O)(=O)c1ccc(CCNC(=S)Nc2ccccc2)cc1`: inactive: 8.93%; for `Cc1ccccc1N1CC(C(=O)NC2CCCC2)CC1=O` (stereo not drawn): inactive: 3.42%.
`CCN(C(=O)CSc1ncccc1C(=O)O)C1CCCCC1`: the “growth rescue (activation)” value was inactive: 0.732%.
Under `COc1cc(NC(=O)c2cccc3c(-c4cnn(C)c4)coc23)cc(OC)c1OC` stands inactive: 19.1%; under `COc1ccccc1CNC(=S)Nc1ccc(S(N)(=O)=O)cc1`, inactive: -1.58%; under `O=C(NCc1cccs1)C1CCCN1C(=O)Nc1ccc(F)cc1` (stereo not drawn), inactive: 36.5%.
Take `O=C(COC(=O)c1ccc([N+](=O)[O-])o1)Nc1nc2ccccc2s1`: the “growth rescue (activation)” value is inactive: 11.6%.
As to `Cn1cnnc1Sc1ccc(C(=O)NCCC23CC4CC(CC(C4)C2)C3)cc1[N+](=O)[O-]`, the “growth rescue (activation)” value is inactive: -11.9%.
The same measure for `NNC(=O)c1ccc(COc2ccc3c(c2)CCC3)cc1`: inactive: 23.1%.
Under `CN(C)c1ccc(S(=O)(=O)NCC(=O)NCC2CCCCC2)cc1[N+](=O)[O-]` stands inactive: 10.3%.
In the case of `Cc1sc2nc(C(C)C)nc(SCC(=O)NC3CC3)c2c1C`, the “growth rescue (activation)” value is inactive: -2.77%.
The same measure for `COc1ccc(N=C2SC(CC(=O)Nc3ccc(F)cc3)C(=O)N2Cc2ccco2)cc1` (stereo not drawn): inactive: 5.92%; for `CCc1cc(=O)oc2c3c(cc(OCC(=O)NCCC(=O)O)c12)OC(C)(C)CC3`: inactive: -3.64%.
Regarding `CC(OC(=O)C1=Cc2ccccc2OC1)C(=O)NCC1CCCO1` (stereo not drawn), the “growth rescue (activation)” value was inactive: -12.8%.
On to `Cc1ccc(S(=O)(=O)NCCc2ccncc2)cc1[N+](=O)[O-]`, for which the “growth rescue (activation)” value is inactive: 2.82%.
The same measure for `NS(=O)(=O)c1ccc(NC(=S)NC(=O)C2CCCCC2)cc1`: inactive: 15.4%.
The same measure for `Fc1cccc(Cl)c1CNCc1cccnc1`: inactive: -4.27%; for `COc1cc(C(=O)O)c2ccccc2n1`: inactive: 7.62%; for `C/C(=N/NS(=O)(=O)c1ccc(C)cc1)c1c(O)c2ccccc2oc1=O`: inactive: 20.1%.
The same measure for `CC(C)c1nnc(NC(=O)c2cccc(NC(=O)C(F)(F)F)c2)s1`: inactive: 16%.
For the molecule `Cc1[nH]n(-c2ccccc2)c(=O)c1/C=N\NC(=O)C1COc2ccccc2O1` (stereo not drawn), the “growth rescue (activation)” value is inactive: -0.699%.
As to `Cc1ccc2cc(CN(C(=O)c3ccco3)c3cccc(C)c3C)c(=O)[nH]c2c1`, the “growth rescue (activation)” value was inactive: 4.71%.
On to `FC(F)(F)c1cc(N2CCOCC2)nc(-c2ccccc2)n1`, for which the “growth rescue (activation)” value was inactive: -1.74%.
Consider `CCOC(=O)c1c(C)[nH]c(C)c1C(=O)COC(=O)COc1ccc(Cl)c(C)c1`, for which the “growth rescue (activation)” value was inactive: -16.9%.
